Test results: patent US10941208B2, “Anti-MUC16 antibodies” (Regeneron Pharmaceuticals, Inc., priority 2016, dated 2021)
Where “and” joins values, the source holds several entries; their conditions need not be identical. Equal entries are not always repeated.

Tests used:
[1] = biological target: T1, Jurkat cells (human CD3-expressing) (Homo sapiens, UniProt P04234+P07766); experiment: FACS binding titration on Jurkat cells; conditions: Table 7B experiment
T1 construct: endogenous in cells; host or cells: Jurkat
Method: A. Briefly, flow cytometric analysis (i.e. fluorescence-activated cell sorting, or FACS) was utilized to determine binding of bispecific antibodies to Jurkat cells or cells expressing human MUC16, followed by detection with a phycoerythrin (PE)-labeled or APC-labeled anti-human IgG antibody. Briefly, 2×10^5 cells/well were incubated for 30 minutes at 4° C. with a serial dilution ranging from 1.33E-07M to 8.03E-12M of each test antibody or isotype control (antibody of same isotype that binds a different antigen with no cross-reactivity to MUC16 or CD3). After incubation, the cells were washed twice with cold PBS containing 1% filtered FBS and a PE-conjugated or APC-conjugated anti-human secondary antibody was added to the cells and incubated for an additional 30 minutes. Wells containing no antibody or secondary only were also used as controls. After incubation, cells were washed, re-suspended in 200 μL cold PBS containing 1% filtered FBS and analyzed by flow cytometry on a BD FACS Canto II.
B. In separate experiments with analogous conditions to that described above, flow cytometric analysis (or FACS) was utilized to determine binding of select bispecific antibodies to Jurkat cells, PEO-1, OVCAR3-Luc and cynomolgus T cells. For the titration analysis, serial dilution of selected MUC16×CD3 bispecific antibodies, a first isotype control antibody (a human chimeric IgG4 antibody that binds an irrelevant human antigen with no cross-reactivity to human or cynomolgus CD3) and a second isotype control antibody (a human chimeric IgG4 antibody that binds an irrelevant human antigen with no cross-reactivity to human MUC16), ranging from 66.6 nM to 0.001 nM.
For FACS analysis, cells were gated by forward scatter height vs. forward scatter area for single events selection, followed by side and forward scatters. The EC50 for cell binding titration was determined using PRISM™ software (GraphPad Software, Inc., La Jolla, Calif.). Values were calculated using 4-parameter non-linear regression analysis. (Liu, J., et al. 2005, Biotechnol Letters 27:1821-1827).

[2] = Pharmacokinetics in CD3 humanized mice (CD3^hu/hu); conditions: single 0.4 mg/kg i.p.
[3] = Pharmacokinetics in humanized MUC16×CD3 mice (MUC16^hu/hu×CD3^hu/hu); type: in vivo, mouse
OVCAR-3/Luc = OVCAR-3/Luc xenograft in PBMC-engrafted NSG mice, therapeutic treatment; type: in vivo; conditions: NSG mice with human PBMCs, 10 μg/mouse i.p. 7 d post tumor implantation (therapeutic treatment)
Source text: To assess the in vivo efficacy of the anti-MUC16/anti-CD3 bispecifics in human tumor xenograft studies, NOD scid gamma (NSG) mice (Jackson Laboratories, Bar Harbor, Me.) were pre-implanted with human peripheral blood mononuclear cells (PBMCs; ReachBio LLC., Seattle, Wash.) and then given ascites cells from the human ovarian cancer cell line OVCAR-3 (American Type Tissue Culture, Manassas, Va.) transduced with luciferase (OVCAR-3/Luc). OVCAR-3 cells endogenously express MUC-16.
Briefly, NSG mice were injected intraperitoneally (i.p.) with 5.0×10^6 human PBMCs. 8 d later, 1.5×10^6 ascites cells from the OVCAR-3/Luc cell line, previously passaged in vivo, were administered i.p. to the NSG mice engrafted with PBMCs. In the immediate treatment group, mice were treated i.p. on the day of OVCAR-3/Luc cell implantation with MUC16/CD3 Bispecific antibodies BSMUC16/CD3-001 or BSMUC16/CD3-005, or an isotype control, at a dose of 10 μg/mouse (N=5 mice/treatment group). In the therapeutic dose model, mice were treated i.p. 7 d post tumor implantation with the MUC16/CD3 Bispecific or control antibodies described above, at a dose of 10 μg/mouse (N=5/treatment group).
In all studies, tumor growth was monitored via bioluminescent imaging (BLI). […] Regions of interest were drawn around each cell mass and photon intensities were recorded as photons (p)/sec (s)/cm^2/steradian (sr). […]

mouse CD3 = mouse CD3 (Mus musculus, UniProt P04235+P22646); experiment: Binding to mouse CD3
[4] = Pharmacokinetics in wild-type mice; type: in vivo, mouse; conditions: WT mice, single 0.4 mg/kg i.p.
[5] = biological target: T2, soluble monomeric human MUC16 (hMUC16.mmh, last five SEA domains, SEQ ID: 1902) (Homo sapiens, UniProt Q8WXI7); experiment: Surface plasmon resonance (BIACORE) binding to hMUC16 fragment at 25° C.; conditions: anti-MUC16/anti-CD3 bispecific antibodies, Table 6
T2 construct: mmh (myc-myc-hexahistidine)

[6] = MUC16^hu/hu × CD3^hu/hu mice, single 0.4 mg/kg i.p.

T2 sequence (Q8WXI7 with tags, fused parts or gaps): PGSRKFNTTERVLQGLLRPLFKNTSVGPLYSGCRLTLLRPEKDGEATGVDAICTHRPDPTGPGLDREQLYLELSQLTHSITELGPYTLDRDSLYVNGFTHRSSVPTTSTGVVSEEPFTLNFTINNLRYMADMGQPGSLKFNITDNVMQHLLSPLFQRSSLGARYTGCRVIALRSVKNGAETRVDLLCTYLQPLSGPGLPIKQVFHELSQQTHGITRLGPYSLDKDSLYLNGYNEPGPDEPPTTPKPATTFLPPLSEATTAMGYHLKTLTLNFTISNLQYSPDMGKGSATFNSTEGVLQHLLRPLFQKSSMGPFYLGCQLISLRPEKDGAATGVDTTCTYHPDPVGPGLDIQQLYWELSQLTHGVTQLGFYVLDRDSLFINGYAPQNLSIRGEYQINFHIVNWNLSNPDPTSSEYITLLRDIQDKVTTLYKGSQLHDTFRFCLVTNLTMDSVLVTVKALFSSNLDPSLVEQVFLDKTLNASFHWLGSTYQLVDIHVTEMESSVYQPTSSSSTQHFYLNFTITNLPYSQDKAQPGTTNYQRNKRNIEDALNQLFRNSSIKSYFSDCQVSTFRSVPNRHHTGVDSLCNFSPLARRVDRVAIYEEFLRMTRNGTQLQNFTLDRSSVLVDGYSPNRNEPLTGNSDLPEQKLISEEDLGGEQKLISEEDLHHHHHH
T1 sequence (P07766 23-207): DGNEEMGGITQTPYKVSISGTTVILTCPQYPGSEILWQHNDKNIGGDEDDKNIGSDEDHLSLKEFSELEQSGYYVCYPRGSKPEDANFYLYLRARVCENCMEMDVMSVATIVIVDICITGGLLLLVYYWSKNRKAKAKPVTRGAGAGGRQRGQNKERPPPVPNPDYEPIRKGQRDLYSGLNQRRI
T1 sequence (P04234 22-171): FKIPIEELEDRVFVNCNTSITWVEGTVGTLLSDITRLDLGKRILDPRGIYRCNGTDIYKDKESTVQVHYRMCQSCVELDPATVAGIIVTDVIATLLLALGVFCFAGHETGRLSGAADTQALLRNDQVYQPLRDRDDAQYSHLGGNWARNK
T1 sequence (P09693 23-182 partner): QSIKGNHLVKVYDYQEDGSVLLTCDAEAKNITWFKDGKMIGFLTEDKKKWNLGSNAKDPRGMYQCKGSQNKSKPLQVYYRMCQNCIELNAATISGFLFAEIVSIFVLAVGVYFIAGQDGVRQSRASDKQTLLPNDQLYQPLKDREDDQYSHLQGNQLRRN
T1 sequence (P20963 22-164 partner): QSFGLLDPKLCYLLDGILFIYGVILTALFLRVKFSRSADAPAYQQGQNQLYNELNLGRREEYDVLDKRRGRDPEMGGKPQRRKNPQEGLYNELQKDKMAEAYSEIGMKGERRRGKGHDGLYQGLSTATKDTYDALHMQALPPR
Chain of mouse CD3 (P22646 22-189): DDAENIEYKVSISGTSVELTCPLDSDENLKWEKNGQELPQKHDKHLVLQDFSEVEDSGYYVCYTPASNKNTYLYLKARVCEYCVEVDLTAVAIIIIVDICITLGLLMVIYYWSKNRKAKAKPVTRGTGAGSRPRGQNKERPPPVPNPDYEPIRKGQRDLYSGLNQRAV
Chain of mouse CD3 (P04235 22-173): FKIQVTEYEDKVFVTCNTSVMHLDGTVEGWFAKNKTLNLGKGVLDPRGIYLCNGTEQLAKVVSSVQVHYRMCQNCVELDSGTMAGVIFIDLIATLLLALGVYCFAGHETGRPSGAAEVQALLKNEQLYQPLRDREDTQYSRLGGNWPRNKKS

B1: BSMUC16/CD3-005: anti-MUC16×CD3 bispecific, modified (chimeric) IgG4 Fc; H1H8767P HCVR (SEQ 18), CD3-VH-G20 (SEQ 1866), common LCVR SEQ 26 (antibody, V domains shown)
VH 1: QVQLVESGGGLVKPGGSLRLSCAASGFTFSNYYMSWVRQAPGKGLEWISYISGRGSTIFYADSVKGRITISRDNAKNSLFLQMNSLRAEDTAVYFCVKDRGGYSPYWGQGTLVTVSS
VH 2: EVQLVESGGGLVQPGRSLRLSCAASGFTFDDYSMHWVRQAPGKGLEWVSGISWNSGSIGYADSVKGRFTISRDNAKNSLYLQMNSLRAEDTALYYCAKYGSGYGKFYYYGMDVWGQGTTVTVSS
VL: [… about 100 residues …]PITFGQGTRLEIK
EC50 [1]: 62.6 nM | AUClast [2]: 36 µg·days/mL | T1/2 (Estimated half-life observed) [2]: 11 days | Terminal antibody concentration [2]: 0.66 µg/mL | Cmax (Peak concentration) ([2]; 0.4 mg/kg): 3600 ng/mL and 3500 ng/mL | Total mAb Concentration In Mouse Serum, Mean ([2]; Time 0.13 d): 3.35 µg/mL | Total mAb Concentration In Mouse Serum, Mean ([2]; Time 0.25 d): 3.40 µg/mL | Total mAb Concentration In Mouse Serum, Mean ([2]; Time 1.00 d): 2.72 µg/mL | Total mAb Concentration In Mouse Serum, Mean ([2]; Time 3.00 d): 1.95 µg/mL | Total mAb Concentration In Mouse Serum, Mean ([2]; Time 7.00 d): 2.31 µg/mL | Total mAb Concentration In Mouse Serum, Mean ([2]; Time 14.00 d): 1.01 µg/mL | Total mAb Concentration In Mouse Serum, Mean ([2]; Time 21.00 d): 1.19 µg/mL | Total mAb Concentration In Mouse Serum, Mean ([2]; Time 28.00 d): 0.66 µg/mL | AUClast [3, 6]: 34 µg·days/mL | Cmax (Peak concentration) [3, 6]: 4500 ng/mL | T1/2 (Estimated half-life observed) [3, 6]: 8.2 days | Total mAb Concentration In Mouse Serum, Mean ([3]; MUC16^hu/hu × CD3^hu/hu mice, single 0.4 mg/kg i.p., Time 0.13 d): 4.35 µg/mL | Total mAb Concentration In Mouse Serum, Mean ([3]; MUC16^hu/hu × CD3^hu/hu mice, single 0.4 mg/kg i.p., Time 0.25 d): 4.45 µg/mL | Total mAb Concentration In Mouse Serum, Mean ([3]; MUC16^hu/hu × CD3^hu/hu mice, single 0.4 mg/kg i.p., Time 1.00 d): 3.00 µg/mL | Total mAb Concentration In Mouse Serum, Mean ([3]; MUC16^hu/hu × CD3^hu/hu mice, single 0.4 mg/kg i.p., Time 3.00 d): 1.98 µg/mL | Total mAb Concentration In Mouse Serum, Mean ([3]; MUC16^hu/hu × CD3^hu/hu mice, single 0.4 mg/kg i.p., Time 7.00 d): 1.58 µg/mL | Total mAb Concentration In Mouse Serum, Mean ([3]; MUC16^hu/hu × CD3^hu/hu mice, single 0.4 mg/kg i.p., Time 14.00 d): 0.78 µg/mL | Total mAb Concentration In Mouse Serum, Mean ([3]; MUC16^hu/hu × CD3^hu/hu mice, single 0.4 mg/kg i.p., Time 21.00 d): 0.66 µg/mL | Total mAb Concentration In Mouse Serum, Mean ([3]; MUC16^hu/hu × CD3^hu/hu mice, single 0.4 mg/kg i.p., Time 28.00 d): 0.30 µg/mL | Terminal antibody concentration, fold less than the isotype control ([3]; MUC16^hu/hu×CD3^hu/hu double-humanized mice): ~2.9 fold | Fold change in Avg Bioluminescent Radiance [p/s/cm^2/sr] at Day 26 relative to Day 6 (mean ± SD) (OVCAR-3/Luc): 0.01 ± 0.02 fold | binding to mouse CD3 (mouse CD3): Neither BSMUC16/CD3-001 or BSMUC16/CD3-005 bind mouse MUC16 or mouse CD3 | AUClast [4]: 45 µg·days/mL | Cmax (Peak concentration) [4]: 5000 ng/mL | T1/2 (Estimated half-life observed) [4]: 12 days | Total mAb Concentration In Mouse Serum, Mean ([4]; Time 0.13 d): 4.23 µg/mL | Total mAb Concentration In Mouse Serum, Mean ([4]; Time 0.25 d): 4.53 µg/mL | Total mAb Concentration In Mouse Serum, Mean ([4]; Time 1.00 d): 3.47 µg/mL | Total mAb Concentration In Mouse Serum, Mean ([4]; Time 3.00 d): 2.51 µg/mL | Total mAb Concentration In Mouse Serum, Mean ([4]; Time 7.00 d): 2.02 µg/mL | Total mAb Concentration In Mouse Serum, Mean ([4]; Time 14.00 d): 1.19 µg/mL | Total mAb Concentration In Mouse Serum, Mean ([4]; Time 21.00 d): 1.19 µg/mL | Total mAb Concentration In Mouse Serum, Mean ([4]; Time 28.00 d): 0.71 µg/mL | ka [5]: 94100 M⁻¹ s⁻¹ | kd [5]: 0.000564 s⁻¹
